About 120 (0.25%) of roughly 48,000 compounds were called active. Not shown: some 4% with an inconclusive outcome. Calls come from the whole dose curve; as a rule, active = well fitted activation curve with a large enough effect; inconclusive = small, poorly fitted or top-dose-only effect, or another doubt; inactive = no such curve, though single readings can be large or run the other way. The list shows a part of the results.
Assay: Primary qHTS for Identification of Small Molecule Activators of Huntingtin-Antisense Promoter Activity; note: nearly all actives have a fitted effect of over 55% in size
Settings: HEK293 HTT-AS promoter firefly luciferase reporter, 24 h; series mostly up to 57.5 µM; activity change, positive = activation: at the top concentration
Summary of the method: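 Firefly luciferase readout (Dual-Glo, 10 min RT) after 24 h, 37 °C compound exposure (final up to 57.5 uM) of HEK293 reporter cells cultured 24 h beforehand; PTC124 at 50 uM final as control inhibitor; activity scaled vehicle 0%, zero RLU -100%.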

Activity change, positive = activation, inactive:
COc1ccc(C(=O)Nc2nnc(S(=O)(=O)N3CCCCCC3)s2)cc1OC -26.7%
CCOC(=O)c1cc(-c2ccccc2)n(-c2cccc(C(=O)Nc3cccc(F)c3)c2)c1C -29.2%
COc1cccc(CNC(=O)CCCN2C(=O)CCn3nc(-c4cccn4C)cc32)c1 3.53%
CCOC(=O)c1cccc(NC(=O)Cn2c(=O)nc(-c3ccccc3F)c3cc(Cl)ccc32)c1 -10.7%
CCn1c(=O)c2cc(C(=O)N(CC(C)C)CC(C)C)sc2c2ccccc21 -15.6%
Cc1ccc(CNc2ncnc3c2nc2n3CCCC2)cc1 -5.75%
CCN(C(=O)CSc1nc2ccccc2n1CC(=O)NCc1ccc(OC)cc1)c1ccccc1 -7.21%
CCOC(=O)c1cc(-c2ccccc2)n(CCC(=O)NC2CCCCC2)c1C -36%
Cc1ccc2nc(CSc3nnc(NC(=O)c4cccc(Br)c4)s3)cc(=O)n2c1 -1.15%
CCOC(=O)c1ccc(NC(=O)CN2c3ccccc3S(=O)(=O)c3ccccc32)cc1 -30.2%
CNC(=O)C1CCC(Cn2c(=O)c3sccc3n(CC(=O)NCc3cccc(OC)c3)c2=O)CC1 (configuration not stated) -19.5%
Cc1cccc(-c2nc3scc(CCNC(=O)c4ccc(Br)o4)n3n2)c1 -16.6%
Nc1nc2c(c(=O)[nH]1)N(C=O)[C@H](CNc1ccc(C(=O)N[C@@H](CCC(=O)O)C(=O)O)cc1)CN2 -5.43%
COc1ccc(CNC(=O)CN2C(=O)COc3ccc(S(=O)(=O)NC4CCCC4)cc32)cc1 -19.2%
COc1ccccc1NC(=O)CSc1nnc2c3ccccc3n(C(C)C)c2n1 -29.9%
COc1ccc(/C=C\c2onc(C)c2S(=O)(=O)N2CCC(C(=O)Nc3cccc(Cl)c3)CC2)cc1 -28.2%
COc1ccc(CCNC(=O)CCc2c(C)nc3cc(-c4ccccc4OC)nn3c2C)c(OC)c1 -60.3%
Cc1ccc(Nc2nnc(-c3cc4c(ccc5ccccc54)oc3=O)s2)cc1 -17.3%
COc1cccc(C(=O)N2CCc3c([nH]c4ccccc34)C2c2ccc(SC)cc2)c1 (configuration not stated) -23.7%
CCOC(=O)c1ccccc1NC(=O)n1ncc2cc(Cl)ccc21 0%
CCc1cccc(C)c1NC(=O)c1cc(S(=O)(=O)N2CCOCC2)cn1C -6.4%
COc1cc(NC(=O)CCn2cnc3ccccc3c2=O)cc(OC)c1 -20.1%
CCCCOc1ccc(CNC(=O)c2cc3n(n2)CCCN(Cc2ccc(C)cc2)C3=O)cc1 -23.4%
CCCCSCCCNC(=O)c1cn(CC)c2ccc(S(=O)(=O)N3CCCCCC3)cc2c1=O -17.6%
COc1ccc(OCCn2c(C)nc3cc(C)c(C)cc32)cc1 -10.3%
COc1ccc(-c2c(C)nn3c(N4CCN(c5ccccc5)CC4)cc(C)nc23)cc1OC -10.1%
COc1ccc(NC(=O)CC2C(=O)N(c3ccc(F)cc3)C(=O)N2Cc2ccc3c(c2)OCO3)cc1 (configuration not stated) 2.77%
C[C@@H](O)[C@H]1C(=O)N2C(C(=O)O)=C(S[C@@H]3CN[C@H](C(=O)N(C)C)C3)[C@H](C)[C@H]12
CCCn1c(=N)c(C(=O)NC2CCCC2)cc2c(=O)n3cccc(C)c3nc21 -12.2%
COc1ccc(/C=C(/C#N)c2nc(-c3ccc(-c4ccccc4)cc3)cs2)cc1OC -24.3%
CNC(=O)COc1ccc(NC(=O)c2ccc(-c3nn(C)c(=O)c4ccccc34)cc2)cc1 -12.6%
CCn1c(SCc2ccccc2Cl)nc(=O)c2c(C(=O)OC)cc(C3CC3)nc21 -47.8%
Cc1cc(C)c2c(-n3cccc3)c(C(=O)NCCCN3CCCCC3C)sc2n1 (configuration not stated) -13.6%
O=C(O)[C@H](O)[C@@H](O)[C@H](O[C@@H]1O[C@H](CO)[C@H](O)[C@H](O)[C@H]1O)[C@H](O)CO -1.06%
COc1cc(-c2noc(-c3cc(C(C)C)[nH]n3)n2)cc(OC)c1OC -2.01%
Cc1nn(S(=O)(=O)c2ccc(Cl)cc2)c(C)c1S(=O)(=O)N1CCCCCC1 -8.5%
CCOC(=O)c1c(NC(=O)c2cc(=O)c3c(C)cc(C)cc3o2)sc(C(C)=O)c1C -1.84%
CC(=O)Nc1nonc1-c1nnc(SCc2ccc(Cl)cc2)n1C -26.5%
CCCOc1ccc(C(=O)Nc2cc(-c3nc4cc(C)cc(C)c4o3)ccc2C)cc1 -2.61% [at 11.5 µM, percent change from vehicle, -100% = no light]
CN1C(=O)c2ccccc2Sc2ccc(NC(=O)N3CCN(c4ccccc4F)CC3)cc21 -16.2%
CC(C)NC(=O)C1CCN(C(=O)N2CCOc3ccc(Cl)cc32)CC1 -7.85%
Clc1ccc(CCNC(c2nnc(-c3ccccc3)o2)c2ccccc2Cl)cc1 (configuration not stated) -25.6%
Cc1ccc(-c2noc(-c3ccc(N4CCCCC4)c([N+](=O)[O-])c3)n2)cc1 -36.4%
Cc1cc(C)cc(OCC2CNC(=O)O2)c1 (configuration not stated) -6.87%
O=C(NCc1cccc(F)c1)C1CCN(C(=O)c2sccc2-n2cccc2)CC1 -18.7%
CCOc1ccccc1CNC(=O)c1ccc2nc(Cc3ccc(OC)cc3)oc2c1 -24.6%
O=C(Nc1cc(NC(=O)c2ccccc2Cl)ccc1Cl)c1ccccc1 20.2%
COc1ccc(CNC(=O)c2ccc(Cn3c(=O)c4cccn4c4cccnc43)cc2)cc1OC -11%
COc1ccc(N2CCN(C(=O)CCNS(=O)(=O)c3ccc4c(c3)CCN4C(=O)C3CC3)CC2)cc1 -36.3%
CCOCCCNC(=O)NC(CCC(C)C)c1c(-n2cccc2)sc2c1CCN(C)C2 (configuration not stated) -21.4%
CCc1ccc(NC(=O)CSc2cn(CC(=O)N3CCCC3)c3ccccc23)cc1 -21%
CN1CCN(CCCNC(=O)c2cnn(-c3ccccc3)c2-n2cccc2)CC1 -8.52%
Cc1ccc(OCC(=O)Nc2ccc(S(=O)(=O)Nc3ncccn3)cc2)c(C(C)(C)C)c1 11.5%
O=c1c2sc3ccccc3c2n(Cc2cccc(C(F)(F)F)c2)c(=O)n1Cc1ccco1 -20.1%
c1nc2nc(Nc3ccc(N4CCOCC4)cc3)nc(NC3CCCCC3)c2[nH]1 -26%
CC(C(O)c1ccccc1)N(C)CCOC(c1ccccc1)c1ccccc1 (configuration not stated) -25.6%
Cc1ccc(C)c(-c2nc(Cn3c(=O)cc(-c4ccccc4)c4c(C)nn(C)c43)c(C)o2)c1 -13.1%
CC(C)(C)C(=O)CSc1nc2ccsc2c(=O)n1Cc1ccccc1F -28.5%
Cc1cc(=O)c2cc(C(=O)Nc3ccccc3)ccc2[nH]1 1.46%
Cc1ccc2cccc(NC(=O)c3ccc(-c4ccc(Br)cc4)o3)c2n1 6.71%
CCc1ccc(-n2c(-c3ccccc3)c(C)n3c4c(=O)n(C)c(=O)n(C)c4nc23)cc1 -11.3%
COc1cccc(N2C(=O)N(CC(=O)NCc3cccc(OC)c3OC)c3ccccc3S2(=O)=O)c1 -20.2%
NS(=O)(=O)c1ccc(CCNC(=O)c2nc(SCc3ccccc3F)ncc2Cl)cc1 -24.2%
COc1cccc(C2C(C(=O)Nc3ccccc3OC)=C(C)Nc3nc4ccccc4n32)c1 (configuration not stated) -34.5%
CCc1ccccc1Nc1ncnc2c1nc1n2CCCC1 11.9%
COc1ccccc1N1CCN(C(=O)CCS(=O)(=O)c2cc(Br)cc3c2N(C(=O)C2CC2)CC3)CC1 -4.16%
CCOC(=O)c1c(C)oc2nc(C)nc(N3CCN(c4ccccc4)CC3)c12 -42.7%
CC(=O)O[C@H]1C[C@@H]2CC[C@@H]3[C@H](CC[C@@]4(C)[C@H]3C[C@H]([N+]3(C)CCCCC3)[C@@H]4OC(C)=O)[C@@]2(C)C[C@@H]1N1CCCCC1 -5.96%
O=C(Nc1ccc(F)cc1)c1cccn1-c1nnc(N2CCCCC2)s1 2.26%
COc1ccc2oc(=O)c(C(=O)NCCc3c(C)[nH]c4ccc(Br)cc34)cc2c1 -50.4%
O=C(CSc1nnc(CNC(=O)c2ccccc2)n1-c1cccc(Cl)c1)Nc1ccccc1F -8.51%
Cc1cn2c(=O)cc(COc3ccccc3NC(=O)c3ccccc3C)nc2s1 0.552%
CCN(Cc1ccccc1)Cc1c(O)ccc2c(=O)c(-c3ccccc3OC)c(C(F)(F)F)oc12 -19.3%
Cc1cccc(OCCSc2nc3ccccc3n2CC(=O)N2CCCCC2)c1C -31.4%
CC(=O)Nc1nonc1-c1nnc(SCC(=O)Nc2ccc(F)cc2F)n1-c1ccccc1 6.04%
Cc1c(C)n(Cc2ccccc2)c2ccc(C(=O)NC(C)c3ccccc3)cc12 (configuration not stated) -2.17%
Cc1ccc(Cn2c(CNS(=O)(=O)c3c(C)cc(C)cc3C)nc3cccnc32)cc1 -32.9%
CCOC(=O)N1CCN(S(=O)(=O)N2CCCC(C(=O)NCc3cc(OC)ccc3OC)C2)CC1 (configuration not stated) -22.8%
CCc1ccc(-n2c(SC(CC)C(=O)N(CC)CC)nc3n[nH]c(C)c3c2=N)cc1 (configuration not stated) -29.7%
COc1ccc(N2CC(NC(=O)/C=C\c3ccc(OC)c(OC)c3)CC2=O)cc1 (configuration not stated) -20.5%
Cc1nc(CC(=O)Nc2ccc(C)c(C)c2)cs1 12%
CCOCCCNC(=O)C1CCCN(Cc2nc(-c3ccc(CC)cc3)oc2C)C1 (configuration not stated) -25.7%
CCn1ccc2cc(S(=O)(=O)N3CCCN(C(=O)Nc4ccccc4OC)CC3)ccc21 -21.5%
CCc1ccc(OCC(=O)N(Cc2cccs2)c2ccc(Cl)cc2)cc1 -29.9%
Cc1cccc(NC(=O)C2CCCN(S(=O)(=O)c3cccc4nonc34)C2)c1C (configuration not stated) -16.2%
CCN1CCC(N(Cc2ccc3c(c2)OCO3)C(=O)Nc2cc(Cl)ccc2C(=O)OC)CC1 -24.1%
Cc1cccc(N2CCN(C(=O)c3cn(C4CCCCC4)c(=O)c4c3c3ccccc3n4C)CC2)c1C -13.7%
Cc1cc2oc(=O)c(CC(=O)NCCc3ccccc3)c(C)c2c2occ(C(C)(C)C)c12 -13.3%
CCCOC(=O)c1c(C)oc2c1cc(NS(=O)(=O)c1ccc(OCC)cc1)c1ccccc12 -45.7%
COc1ccc(-c2cn3c(n2)sc2cc(C(=O)NC4CCCc5ccccc54)ccc23)cc1 (configuration not stated) 27.5%
Cc1cc(C(=O)O)c2c(=O)n(C)c(=O)n(C)c2n1 -2.4%
CCN(C(=O)CCc1nc(-c2ccc(C)cc2)no1)c1cc(C)ccc1C -32.1%

Reference: PubChem BioAssay AID1508624 (National Center for Advancing Translational Sciences (NCATS), 2021)
